# From the supplement of paper PMC10126150
# Sequences with one replicate were seen in a single cluster, so their values are uncertain.
# Test system: ATP
# Test: switch fluorescence ratio, 500 uM ATP over buffer (Cy3 cluster intensity, sum of 5 cycles each) (fold (ratio)); higher = stronger signal-on switching upon ATP binding; sequences stand for … in TCGTCGGCAGCGTCAGATGTGTATAAGAGACAGTTTTTTTTTTTTTTTTTTTTTTTTT…TC
# Conditions: aptamer strand: ATP DNA aptamer (quencher-CACCTGGGGGAGTATTGCGGAGGAAGG + anchor), 100 nM annealed; ATP concentration: 500 uM; one replicate
# Method in brief: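 Clusters carrying Cy3-labelled switching strands on a modified Illumina MiSeq flow-cell were annealed to 100 nM quencher-labelled ATP aptamer and imaged in selection buffer. They were imaged again after 15 min with 500 uM ATP at 22 °C, over five buffer/ATP cycles with NaOH stripping and re-annealing in between. For each cluster, the fluorescence ratio is the summed Cy3 intensity of the target cycles divided by that of the buffer cycles, averaged per switch-domain sequence. Clusters outside 100-1000 RFU were left out.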
# 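Further: ATP exposure 15 min at 22 °C before imaging.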
row,Sequence,switch fluorescence ratio
1,CTCAGACAGT,1.16
2,CTCAGAGGAT,0.997
3,CTCAGCTGAA,1.03
4,CTCAGTAA,1.7
5,CTCAGTTTAC,1.45
6,CTCATCCTAC,1.23
7,CTCATCGCGC,1.36
8,CTCATGGCTA,1.07
9,CTCATTATGC,1.12
10,CTCATTGCGG,1
11,CTCATTTTTC,0.94
12,CTCCAAGCG,1.08
13,CTCCACGAGG,2.51
14,CTCCATAATT,2.38
15,CTCCCGGGC,1.41
16,CTCCCTAGCG,1.33
17,CTCCGAAGTT,2.07
18,CTCCGACGGA,1.46
19,CTCCGGTTAA,4.4
20,CTCCTAGCCA,1.17
21,CTCCTCACGA,1.73
22,CTCCTCGGTC,1.6
23,CTCCTTTAAC,1.24
24,CTCGAATCGG,1
25,CTCGAATTGA,0.984
26,CTCGACAATA,4.42

row,Sequence,switch fluorescence ratio
1,CTCGACATGT,1.02
2,CTCGAGGATT,1
3,CTCGAGGCCA,1.07
4,CTCGAGTCGA,0.974
5,CTCGATTGGT,0.957
6,CTCGCGTGTT,1.01
7,CTCGCTAGCC,1.63
8,CTCGCTCACG,1.07
9,CTCGCTGAAA,1.01
10,CTCGCTTAGT,1.12
11,CTCGCTTCG,1.01
12,CTCGGATTCG,1.03
13,CTCGGGCAT,1.19
14,CTCGGGGCGC,1.03
15,CTCGGGGTG,0.994
16,CTCGGTAAGC,1.19
17,CTCGGTGCTT,1.02
18,CTCGTAAAGC,1.56
19,CTCGTAACGC,1.15
20,CTCGTAGCTC,1.47
21,CTCGTCCACT,1.04
22,CTCGTCTCTG,0.981
23,CTCGTGCGAG,1.08
24,CTCTAACAGT,1.04
25,CTCTACACCG,1.07
26,CTCTACATG,1.03

row,Sequence,switch fluorescence ratio
1,CTCTACCTAC,1.46
2,CTCTAGATAA,1.71
3,CTCTAGGAGG,0.962
4,CTCTAGTGTG,1.01
5,CTCTATAATG,1.02
6,CTCTATATGG,0.948
7,CTCTATCCGG,0.98
8,CTCTATTTTA,0.971
9,CTCTCAACCT,1.87
10,CTCTCATGT,1.02
11,CTCTCCGCAA,0.947
12,CTCTCCTGGG,1.38
13,CTCTCCTTCT,1.07
14,CTCTCGTCTT,0.989
15,CTCTCTATTG,0.958
16,CTCTGGAAAG,1.02
17,CTCTGGTATT,1.05
18,CTCTGGTCTT,0.966
19,CTCTTAGT,0.99
20,CTCTTATAGC,1.59
21,CTCTTGAGCT,1.02
22,CTCTTGGACG,0.983
23,CTCTTTAACG,0.986
24,CTCTTTTATA,0.98
25,CTGAAACTTG,1.05
26,CTGAAATACG,2.52

row,Sequence,switch fluorescence ratio
1,CTGAAATGA,1.02
2,CTGAACTCTG,1.25
3,CTGAAGAAT,0.998
4,CTGAAGAGCG,1.03
5,CTGACAAGAG,1.09
6,CTGACCGGCC,1.5
7,CTGACGCTCA,2.73
8,CTGACGGAAC,4.43
9,CTGACTAAGT,1.07
10,CTGACTCGAT,1.69
11,CTGAGAGATT,0.991
12,CTGAGAGGCG,0.964
13,CTGAGATAAC,1.06
14,CTGAGCAATT,2.27
15,CTGAGCGCAA,3.83
16,CTGAGCGCAC,2.08
17,CTGAGGACC,1.06
18,CTGAGTAGTA,1
19,CTGAGTTCG,1.02
20,CTGATGGGAA,1.09
21,CTGATTAAGG,0.981
22,CTGATTAGCA,1.03
23,CTGATTCGGC,1.02
24,CTGCCCCGGA,1.2
25,CTGCCCTTTG,0.995
26,CTGCCTATAT,1.08

row,Sequence,switch fluorescence ratio
1,CTGCCTCGGA,0.982
2,CTGCGTTGGA,1.03
3,CTGCTAGAAT,1.03
4,CTGCTAGGAT,1.03
5,CTGCTATTGT,0.992
6,CTGCTCACCT,1.13
7,CTGCTGGGGA,1.01
8,CTGCTTGCCT,1.02
9,CTGCTTTATG,1.02
10,CTGGAAATCT,1.09
11,CTGGAAGCTT,0.997
12,CTGGACGTTT,0.951
13,CTGGAGAAGG,1.01
14,CTGGATTCAC,1.03
15,CTGGCCTGCT,1.04
16,CTGGCGCCTT,0.96
17,CTGGCGGGAT,1.03
18,CTGGCTCTGG,0.998
19,CTGGGACAGG,0.957
20,CTGGGACCGT,0.978
21,CTGGGCCTCC,1.08
22,CTGGGCGTAT,1.06
23,CTGGGGTAA,1
24,CTGGGGTTT,0.975
25,CTGGGTAGTG,0.974
26,CTGGGTCTTA,0.952

row,Sequence,switch fluorescence ratio
1,CTGGTACGCG,0.993
2,CTGGTCATTA,0.981
3,CTGGTTATGT,0.973
4,CTGGTTGTTT,0.989
5,CTGTACGCG,0.969
6,CTGTAGTAGA,1.05
7,CTGTAGTGCA,1.08
8,CTGTAGTGGA,1.02
9,CTGTAGTTAT,1.27
10,CTGTATCGAG,0.974
11,CTGTATGCAG,1.02
12,CTGTCATAGG,1.01
13,CTGTCCATGC,1.25
14,CTGTCCCTAT,0.99
15,CTGTCTAGGT,0.974
16,CTGTCTCATA,1.01
17,CTGTCTCCCT,1.01
18,CTGTCTGGCC,1.04
19,CTGTCTTGGA,1.02
20,CTGTGAAATG,1.03
21,CTGTGACGG,1.05
22,CTGTGGAAAT,1.02
23,CTGTGGGAA,0.987
24,CTGTGGGATA,3.12
25,CTGTGTATTT,1.04
26,CTGTGTGCTT,0.998

row,Sequence,switch fluorescence ratio
1,CTGTTAAAA,1.01
2,CTGTTAAATC,1.01
3,CTGTTCCTGT,1.12
4,CTGTTCTATT,1
5,CTGTTGGCGA,1.07
6,CTGTTTAGAA,1.07
7,CTGTTTGCTA,1.02
8,CTGTTTTGAT,0.961
9,CTTAAAACAA,1.03
10,CTTAACAAGG,0.986
11,CTTAACCTCA,1.01
12,CTTAACGAAG,0.998
13,CTTAATCTCA,0.941
14,CTTAATGGGA,0.991
15,CTTACAACAC,1.35
16,CTTACCCATT,1.46
17,CTTACCCGTG,0.989
18,CTTACCGGGG,1.01
19,CTTACGCC,1.06
20,CTTACGCGGC,1.04
21,CTTACGGACA,1.1
22,CTTACTTATA,1.01
23,CTTACTTGGT,1.01
24,CTTAGAACGT,1
25,CTTAGAGCAA,1.92
26,CTTAGAGGGC,0.971

row,Sequence,switch fluorescence ratio
1,CTTAGAGTCT,1.12
2,CTTAGCGCTC,0.989
3,CTTAGCGGAC,1.42
4,CTTAGGCGAA,0.963
5,CTTAGGGCA,0.93
6,CTTAGTCGCC,0.979
7,CTTAGTCGCT,1.01
8,CTTAGTTAAG,0.991
9,CTTAGTTTA,1.02
10,CTTAGTTTGT,1.03
11,CTTATAGTCA,1.15
12,CTTATATGTC,1.08
13,CTTATATTTG,0.996
14,CTTATCCCTT,0.993
15,CTTATCTTAT,0.947
16,CTTATGGGTC,1
17,CTTATGTAAG,1
18,CTTATGTAGA,1.08
19,CTTATTCACG,1
